Structures are written as SMILES. In all, about 110,000 compounds were measured (“z-score”: median about -0.1, highest 2% from about 2 on). The list shows a part of the results. Activity calls are given as the source filed them.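 Rule for the calls: active = z-score in the third read window above 3 or below -3; inactive = the rest.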

The assay has as its target Metabotropic glutamate receptor 8 (Rattus norvegicus) (UniProt P70579). Kind of assay: rat mGluR8 modulators via GIRK flux, primary screen, cell-based, thallium flux, HTS (AID 488969). The conditions noted are these: HEK293 rat mGluR8, GIRK (G protein-gated inwardly rectifying potassium channel) thallium flux, FluoZin2; at 10 µM; stronger effect = higher value; submaximal glutamate (EC20) added with thallium.
Chain of UniProt P70579 (P70579 whole entry, looked up): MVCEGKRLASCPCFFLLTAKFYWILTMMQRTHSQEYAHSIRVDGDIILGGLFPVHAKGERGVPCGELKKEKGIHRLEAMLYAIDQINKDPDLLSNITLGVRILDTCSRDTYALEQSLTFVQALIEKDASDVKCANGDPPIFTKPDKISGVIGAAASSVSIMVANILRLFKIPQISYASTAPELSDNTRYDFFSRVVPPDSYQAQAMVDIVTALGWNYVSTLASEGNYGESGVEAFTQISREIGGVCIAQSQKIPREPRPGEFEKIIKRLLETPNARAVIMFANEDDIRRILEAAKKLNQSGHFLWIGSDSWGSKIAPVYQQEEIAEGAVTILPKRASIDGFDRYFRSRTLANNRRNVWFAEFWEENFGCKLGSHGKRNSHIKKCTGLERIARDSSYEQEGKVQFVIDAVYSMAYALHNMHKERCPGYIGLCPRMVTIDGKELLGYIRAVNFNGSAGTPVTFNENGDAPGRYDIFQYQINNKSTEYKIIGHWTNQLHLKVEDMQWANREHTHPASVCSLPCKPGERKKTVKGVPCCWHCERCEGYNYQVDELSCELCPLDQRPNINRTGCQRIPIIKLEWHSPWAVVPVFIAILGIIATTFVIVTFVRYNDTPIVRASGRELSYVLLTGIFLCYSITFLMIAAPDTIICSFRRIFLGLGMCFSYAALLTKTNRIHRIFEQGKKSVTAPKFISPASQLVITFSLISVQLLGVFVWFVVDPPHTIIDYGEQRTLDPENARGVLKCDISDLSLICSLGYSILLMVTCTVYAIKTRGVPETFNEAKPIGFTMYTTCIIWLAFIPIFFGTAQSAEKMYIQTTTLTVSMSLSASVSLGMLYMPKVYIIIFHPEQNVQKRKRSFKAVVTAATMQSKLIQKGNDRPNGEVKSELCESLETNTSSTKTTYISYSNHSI
In turn, `O=C(CN1CCN(Cc2ccc3c(c2)OCO3)CC1)Nc1ccc2c(c1)OCO2` gave a z-score of -1.43. `COc1ccc(S(=O)(=O)Cc2ccc(C(=O)NCc3ccccn3)o2)cc1`: the z-score is -0.168. For `NS(=O)(=O)c1ccc(NC(=O)N2c3ccccc3Sc3ccccc32)cc1`, the z-score came to 0.371. The value for `CCc1nnc(NS(=O)(=O)c2ccc(NC(=S)NC(=O)c3ccccc3)cc2)s1` was active: 5.21; that for `CC(C)(C)NC(=O)COC(=O)CNC(=O)c1cc(Cl)cc([N+](=O)[O-])c1` was 1.35; that for `CCCN1C2=C(C(=O)CCC2)C(c2ccc(O)c(Br)c2)C2=C1CCCC2=O` was -1.03. `Cc1noc(C)c1CN(C(=S)NC(C)C)c1ccccc1` showed a z-score of -0.102. The value for `COc1ccc(CNC(=O)C2CCN(S(=O)(=O)N3CCOCC3)CC2)cc1` was 0.0542.

The compound `Cc1cc(=O)oc2cc(OCC(=O)OCC(=O)N3CCc4ccccc43)ccc12` registered a z-score of -0.0327. `CCOc1ccc(NC(=O)c2ccccc2NS(=O)(=O)c2ccc(F)cc2)c([N+](=O)[O-])c1` displayed a z-score of -0.294. Next, `CCS(=O)(=O)N1CCN(C(=O)c2cc(OC)cc(OC)c2)CC1`: 0.462; `CCc1ccc2c(c1)C1(NN=C(c3ccc(C)cc3)S1)C(=O)N2` (configuration not stated): active: 3.15; `O=C(Nc1ccc2c(c1)OCCO2)c1ccc(NC(=O)C2CCCO2)cc1` (configuration not stated): 0.0738. Regarding `COc1ccc(Nc2nc(N3CCCC3)nc(N3CCCC3)n2)c(OC)c1`, the z-score was determined as 0.55.

Compound `CC(=O)Cc1nsc(NC(=O)C2Cc3ccccc3C(=O)O2)n1` (configuration not stated) showed a z-score of -0.244. In the case of `O=C(O)[C@H]1CCC(=O)N1Cc1ccco1`, the z-score is -0.288. The value for `CC(=O)NNS(=O)(=O)c1ccccc1[N+](=O)[O-]` was -0.454. The value for `O=C(COc1cccc(NC(=O)c2ccco2)c1)c1ccccc1` was 0.382; that for `O=C(NNc1nc2ccccc2s1)c1ccc(F)cc1` was 0.186.

Take `O=C(Nc1ccccc1)N1CCN(c2ccc(F)cc2)CC1`: the z-score was found to be 0.147.

The compound `COc1ccc(C2C(C(N)=O)=C(C)Nc3nc(-c4ccccc4)nn32)cc1OC` (configuration not stated) gave a z-score of 0.875. In the case of `COc1cc(NC(=O)CSc2nc3cc(C)ccc3cc2C)c(C(=O)O)cc1OC`, the z-score is -0.828.

Take `O=C1CCCc2c1[nH]c1ccc(CN3CCCCC3)cc21`: the z-score came out at 0.129. The value for `CCSc1nnc(NC(=O)c2ccc(Br)s2)s1` was -0.152; that for `O=C1c2cccc(OCc3ccc(F)cc3)c2CCN1Cc1ccccc1` was 0.677; that for `CCOc1ccc(C(=O)NCCCn2ccnc2)cc1` was 0.924. For the compound `COc1ccc(OC)c(C(C)NC(=O)c2ccc(Br)cc2)c1` (configuration not stated), the z-score was -0.0311.

For `Cc1nn(C)c(C)c1NC(=O)CCSc1nc(-c2ccco2)cc(C(F)(F)F)n1`, the z-score was -1.15. The compound `O=C(CSc1nc2c(c(=O)n1-c1ccc(F)cc1)SCC2)Nc1ccc2c(c1)OCO2` came in with a z-score of -0.281. The value for `Nc1nc2ccc(O)cc2s1` was -0.141; that for `CCOc1cc(/C=C2/C(=O)ON=C2C)ccc1OCc1ccc(F)cc1` was -0.962; that for `CCC(=O)N1CCN(c2ccc(NC(=O)c3ccco3)cc2)CC1` was 0.753.

In the case of `COc1ccc(N(CC(=O)NC2CCCC2)C(=O)Cn2nnc(-c3ccc(C)cc3)n2)cc1`, the z-score is active: -3.78. Next, `COc1ccc2c(C)cc(N3CCN(c4ccc(F)cc4)CC3)nc2c1`: -0.288; `CCCCCCC1C(C#N)=C(N)OC2=C1C(=O)CCC2` (configuration not stated): -0.102; `C=CCOc1ccccc1/C=N/NC(=O)c1ccc(Cl)cc1Cl`: 0.0573. Take `O=C(NCc1ccco1)c1cccc(N2CCCC2=O)c1`: the z-score was -0.152. Turning to `Cc1ccc(-c2nnc(SCc3ccccc3F)o2)cc1`, the z-score came to 0.708. As to `COc1ccc(-c2nn(-c3ccccc3)cc2/C=N/NC(=O)c2cccc(S(=O)(=O)Nc3ccccc3Cl)c2)cc1`, the z-score is 0.244. On to `COc1cc(C(=O)Oc2ccccc2/C=N/NC(=O)c2ccc(Cl)cc2)cc(OC)c1OC`, for which the z-score was -0.169. With `COc1ccccc1C(=O)NNC(=O)CCCN1C(=O)/C(=C/c2cccs2)SC1=S`, the z-score was 0.254. Next, `O=C(CCC(=O)c1ccc[nH]1)c1ccc(Cl)cc1`: 1.33; `CCOc1cc(C)nc(N2CCCC(C(=O)NCc3ccccc3F)C2)n1` (configuration not stated): -0.469. In turn, `COc1ccc(C2C(C(=O)N3CCC(C)CC3)c3ccccc3C(=O)N2C)cc1` (configuration not stated) had a z-score of 0.0244. The value for `CCOCc1cc(C)[nH]c(=O)c1C#N` was -0.039.

Compound `COc1ccc(Nc2nnc(-c3ccc(N4CCOCC4)c([N+](=O)[O-])c3)c3ccccc23)cc1` showed a z-score of -0.163. The value for `Cc1cc(C)cc(Oc2ccc(C(F)(F)F)cc2C#N)c1` was 0.3.

In turn, `CC(=O)Oc1ccc(-c2csc(Nc3cccnc3)n2)cc1` gave a z-score of -0.636. The value for `CCc1cc(C(=O)NNC(=S)Nc2cccc(C)c2)cs1` was active: 7.17. The value for `O=S(=O)(NCc1ccc2c(c1)OCO2)c1cccc(S(=O)(=O)N2CCOCC2)c1` was 0.771; that for `O=C1CC(c2ccco2)CC(O)=C1C=Nc1cc(Cl)ccc1Cl` (configuration not stated) was -0.00986. The value for `COc1ccc(NC(=O)c2ccccc2NC(=O)CSc2ccc(C)cc2)cc1` was -0.388; that for `Nc1c(C(=O)Nc2ccccc2)sc2nc3c(c(-c4ccco4)c12)CCCC3` was -0.627; that for `Cc1cccc(OCc2nc(-c3ccccn3)n[nH]2)c1` was -0.872. For `Cc1ccc2nsnc2c1S(=O)(=O)NCc1ccc2c(c1)OCO2`, the z-score turned out to be 0.73. The value for `O=C1CN(C(=O)CCN2CCOCC2)C(c2ccccc2)c2cc(Br)ccc2N1` (configuration not stated) was -0.163. The value for `Oc1ccc2ccccc2c1C1Nc2cccc3cccc(c23)N1` was 0.097; that for `COc1ccc(NC(=O)C2CCCN(S(=O)(=O)c3cccc4cccnc34)C2)cc1OC` (configuration not stated) was -0.263; that for `CSCCC(N=CC1=C(O)CC(C)(C)CC1=O)C(=O)O` (configuration not stated) was -0.341. The value for `CCn1cc(CNC(=O)CSc2nc(-c3ccc(OC)c(OC)c3)cc(C(F)(F)F)n2)c(C)n1` was -0.182; that for `O=C(c1ccccc1)N(Cc1ccco1)C1CCS(=O)(=O)C1` (configuration not stated) was 0.334.

Consider `O=C(OCCN1C(=O)c2ccccc2C1=O)c1cc(=O)[nH]c2ccccc12`, for which the z-score is -0.212.

With `COc1ccc(C2CC(c3ccccc3)Nc3nc(NC(=O)c4cccs4)nn32)cc1` (configuration not stated), the z-score is -0.679. On to `CCOc1ccccc1NC(=O)CN(C)S(=O)(=O)c1ccc(OC)c(C)c1`, for which the z-score was -0.359. In the case of `O=CN1CCc2scc[n+]2-c2ccccc21`, the z-score is -0.0895. In turn, `Cc1cc(C(=O)NN=C2C3CC4CC(C3)CC2C4)c2ccccc2n1` came in with a z-score of -0.0938. Compound `CC(=O)N(c1ccc(C(C)C)cc1)C1C=CS(=O)(=O)C1` (configuration not stated) returned a z-score of 0.709. Next, `Cc1c(NS(=O)(=O)c2cccc3nsnc23)c(=O)n(-c2ccccc2)n1C`: 0.0932. The value for `COCCN(C(=S)Nc1cccc(OC)c1)C1CCN(C(C)=O)CC1` was 0.263; that for `O=C(CN1CCOCC1)Nc1cccc(C(=O)Nc2cccc(C(F)(F)F)c2)c1` was -0.724; that for `Cc1ccc(CNC(=O)CSc2ncccn2)cc1` was 0.401.

In the case of `O=C(NN1C(=O)/C(=C/c2cccnc2)SC1=S)C(c1ccccc1)c1ccccc1`, the z-score is -0.0669.

Regarding `COc1ccc(C2CC(=O)c3cnc(NC(=O)c4cccc(OC)c4)nc3C2)cc1` (configuration not stated), the z-score is -0.697. Next, `COCCN(C(=O)c1csnn1)C(C(=O)NC(C)(C)C)c1cccc(OC)c1` (configuration not stated): -0.202; `Cc1c(C(=O)O)sc2nc3n(c(=O)c12)CCC(C)CC3` (configuration not stated): 0.233; `COc1ccc(N(CC(=O)Nc2ccccc2SC)S(C)(=O)=O)cc1OC`: 0.573. `Cc1nc2ccc(NS(=O)(=O)c3ccc4c(c3)OCCO4)cc2s1`: the z-score is active: 3.48.

As to `O=C(OCC#CCSc1nnc(-c2ccncc2)o1)c1sc2ccccc2c1Cl`, the z-score was determined as 2.87.

`CCc1ccc2c(c1)C1(NN=C(c3cccc4ccccc34)S1)C(=O)N2` (configuration not stated): the z-score was active: 4.02. `O=S(=O)(NCc1cc(-c2ccccc2Cl)no1)c1ccccc1` registered a z-score of -0.26. `Cc1ccc(NC(=O)CN2C(=O)NC(Cc3ccccc3)C2=O)cc1` (configuration not stated) displayed a z-score of 0.124. In turn, `NC(=O)C1CC(=O)N(c2ccc(OCC(=O)Nc3cccc(C(F)(F)F)c3)cc2)C1` (configuration not stated) yielded a z-score of -0.403. `C=CCN1CN(S(=O)(=O)c2cccs2)c2nc3ccccc3nc21` came in with a z-score of -0.865. The compound `CCN1C(C(=O)c2ccccc2)=C(Nc2ccccc2C)c2ccccc2S1(=O)=O` showed a z-score of -0.411.

On to `COc1cc(NC(=O)c2ccco2)ccc1NC(=O)C(C)C`, for which the z-score was found to be 0.332. The value for `CCN(CC)CCNC(=O)c1c(C)n(-c2ccccc2)c2cc(Br)c(OC)cc12` was 2.84; that for `C/C(=N/NC(=O)c1ccccn1)c1ccco1` was -0.0123. The value for `O=C(C[n+]1cc(-c2ccc(Cl)c(Cl)c2)n2c1CCC2)OCc1ccccc1` was 0.0701; that for `CC(=O)c1c(C)oc2ccc(N(C(C)=O)S(=O)(=O)c3ccc(Cl)c([N+](=O)[O-])c3)cc12` was 0.653.

With `COc1cc(CNCCc2ccc(S(N)(=O)=O)cc2)ccc1OCC(=O)NC1CCCCC1`, the z-score was -0.0552. The value for `CN(c1ccc(C(=O)NCc2cccnc2)cc1)S(C)(=O)=O` was 0.374; that for `COc1ccccc1Nc1nc(C)cc(C)c1C(N)=O` was -0.333. The value for `O=C1CCC(=O)N1OCCOc1ccc2c(c1)CCC2` was 0.0895. Compound `O=C(OCCN=C1NS(=O)(=O)c2ccccc21)c1ccncc1` returned a z-score of 0.427. The value for `CC(=O)Oc1ccc([N+](=O)[O-])cc1N1C(=O)c2ccccc2C1=O` was -0.388; that for `CCOc1ccccc1N(CC(=O)Nc1ccccc1C(=O)NCc1ccco1)S(C)(=O)=O` was 0.306. Next, `Cc1ccc(S(=O)(=O)c2c(N)n(CCN3CCOCC3)c3nc4ccccc4nc23)cc1C`: -0.192. With `Nc1ccccc1SCC(=O)Nc1ccc(N2CCOCC2)cc1`, the z-score was found to be 2.53. Next, `O=C(NCCNCc1ccc(F)cc1)c1ccco1`: -0.0503; `CC(=O)c1cn(CC(=O)Nc2ccc(C)cc2C)c2ccccc12`: 0.372; `CNC(=O)CSc1nc(-c2ccccc2)c(-c2ccccc2)[nH]1`: -0.0369. The value for `Cc1sc2ncnc(OCC(=O)Nc3ccc4c(c3)OCCO4)c2c1C` was -0.098. The compound `COc1ccc2cc3cc(C(=O)N4CCN(c5ccccc5)CC4)oc3nc2c1` gave a z-score of 0.408. The value for `CCN1C(=O)c2cccc3c(S(=O)(=O)NC(Cc4c[nH]c5ccccc45)C(=O)O)ccc1c23` (configuration not stated) was 0.241; that for `CC(C)CCOCC(O)CCC(=O)NNC(=S)Nc1ccccc1` (configuration not stated) was -2.1; that for `Oc1cccc2ccc(/C=C/c3cccs3)nc12` was 1.14. As for `CCN(CC)CCN1C(=O)C(=O)/C(=C(/O)c2cnn(-c3ccccc3)c2C)C1c1cccnc1` (configuration not stated), the z-score stood at 0.34.

The record behind these values is PubChem BioAssay AID488969 (Vanderbilt High Throughput Screening Facility, 2010).
